{"source": "PubChem BioAssay (NCATS)", "key": {"[1]": {"molecular_target": "Rap guanine nucleotide exchange factor 3 (Homo sapiens) (UniProt O95398)", "sequence (O95398 whole entry, looked up)": "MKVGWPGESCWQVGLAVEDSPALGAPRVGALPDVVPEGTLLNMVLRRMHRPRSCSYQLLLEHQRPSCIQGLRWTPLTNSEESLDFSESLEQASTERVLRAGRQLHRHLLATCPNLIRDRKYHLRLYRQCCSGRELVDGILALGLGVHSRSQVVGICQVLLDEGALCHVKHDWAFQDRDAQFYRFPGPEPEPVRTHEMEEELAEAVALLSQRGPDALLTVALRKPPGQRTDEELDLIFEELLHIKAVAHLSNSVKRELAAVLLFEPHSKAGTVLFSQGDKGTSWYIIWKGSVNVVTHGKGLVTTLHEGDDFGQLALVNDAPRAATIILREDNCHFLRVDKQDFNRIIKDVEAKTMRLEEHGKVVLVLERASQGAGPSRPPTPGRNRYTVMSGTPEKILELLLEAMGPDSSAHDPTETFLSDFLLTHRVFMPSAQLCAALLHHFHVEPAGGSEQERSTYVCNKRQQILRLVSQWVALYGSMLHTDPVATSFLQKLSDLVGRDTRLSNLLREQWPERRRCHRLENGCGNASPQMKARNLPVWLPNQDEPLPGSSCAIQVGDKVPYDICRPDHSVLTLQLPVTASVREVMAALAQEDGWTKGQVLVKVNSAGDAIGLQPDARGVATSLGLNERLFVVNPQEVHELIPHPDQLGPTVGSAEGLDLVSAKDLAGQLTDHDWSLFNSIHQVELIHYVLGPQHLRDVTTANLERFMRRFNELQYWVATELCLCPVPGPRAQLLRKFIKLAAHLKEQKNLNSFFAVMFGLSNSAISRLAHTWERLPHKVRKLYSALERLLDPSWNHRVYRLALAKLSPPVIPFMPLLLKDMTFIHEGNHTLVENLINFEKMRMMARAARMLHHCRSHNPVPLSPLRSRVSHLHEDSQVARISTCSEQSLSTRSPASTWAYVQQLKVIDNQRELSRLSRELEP", "experiment": "Confirmatory qHTS for agonist of cAMP-regulated guanine nucleotide exchange factor 3 (EPAC1) (AID 1645881); for all read-outs here: nearly all actives have a fitted effect of over 75% in size", "conditions": "EPAC1 Rap1B BODIPY-GDP exchange fluorescence; activation: at 154 µM (top of the series), 100% = cAMP control response"}, "[2]": {"molecular_target": "Rap guanine nucleotide exchange factor 3 (Homo sapiens) (UniProt O95398)", "experiment": "Counterscreen qHTS for agonist of cAMP-regulated guanine nucleotide exchange factor 3 (EPAC1) (AID 1645889); for activation: % of control where 0% means no effect; for all read-outs here: nearly all actives have a fitted effect of over 40% in size", "conditions": "EPAC1 Rap1B-BODIPY-GDP exchange, fluorescence; for Potency: activation: at 154 µM (top of the series) unless noted", "how_it_was_run": "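Measured: fluorescence of BODIPY-GDP bound to Rap1B, which falls as exchange proceeds. Conditions include 50 uM competing GDP, 5 and 30 min reads, and a later cAMP challenge for antagonist detection.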"}, "[3]": {"experiment": "Counterscreen for APE1 Inhibitors: Fluorescent Dye Displacement Assay (AID 2564)", "how_it_was_run": "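Loss of Thiazole Orange fluorescence marks promiscuous DNA binders. The dye (250 nM) is mixed with 50 nM abasic-site dsDNA in pH7.5 Tris buffer containing MgCl2, then compounds are added and emission is read once.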"}, "[4]": {"molecular_target": "Tyrosyl-DNA phosphodiesterase 1 (Homo sapiens) (UniProt Q9NUW8)", "experiment": "Confirmation Assay for Inhibitors of Tyrosyl-DNA Phosphodiesterase (TDP1) (AID 489007); note: nearly all actives have a fitted effect of over 40% in size", "conditions": "recombinant human TDP1 enzymatic activity, dose-response", "how_it_was_run": "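AlphaScreen assay of tyrosine-FITC cleavage from a biotinylated DNA substrate (15 nM) by E. coli-expressed human Tdp1 (1 nM). Sequence: compound preincubation 15 min, reaction 5 min, bead detection 10 min, all at room temperature. No-enzyme wells give maximum signal.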"}, "[5]": {"experiment": "qHTS for Inhibitors of WRN Helicase: Thiazole Orange DNA Binding Counterscreen (AID 720499); note: nearly all actives have a fitted effect of over 60% in size; for activity change, negative = inhibition: % is set by controls: 0 for no effect and ±100 for the full control effect", "how_it_was_run": "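Counterscreen to remove nonspecific DNA binders from WRN helicase hits. Compounds were incubated 15 min at room temperature with 50 nM DNA and 100 nM ThO, then fluorescence was recorded (480 nm excitation, 530 nm emission).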"}, "[6]": {"molecular_target": "DNA polymerase iota (Homo sapiens) (UniProt Q9UNA4)", "sequence (Q9UNA4 whole entry, looked up)": "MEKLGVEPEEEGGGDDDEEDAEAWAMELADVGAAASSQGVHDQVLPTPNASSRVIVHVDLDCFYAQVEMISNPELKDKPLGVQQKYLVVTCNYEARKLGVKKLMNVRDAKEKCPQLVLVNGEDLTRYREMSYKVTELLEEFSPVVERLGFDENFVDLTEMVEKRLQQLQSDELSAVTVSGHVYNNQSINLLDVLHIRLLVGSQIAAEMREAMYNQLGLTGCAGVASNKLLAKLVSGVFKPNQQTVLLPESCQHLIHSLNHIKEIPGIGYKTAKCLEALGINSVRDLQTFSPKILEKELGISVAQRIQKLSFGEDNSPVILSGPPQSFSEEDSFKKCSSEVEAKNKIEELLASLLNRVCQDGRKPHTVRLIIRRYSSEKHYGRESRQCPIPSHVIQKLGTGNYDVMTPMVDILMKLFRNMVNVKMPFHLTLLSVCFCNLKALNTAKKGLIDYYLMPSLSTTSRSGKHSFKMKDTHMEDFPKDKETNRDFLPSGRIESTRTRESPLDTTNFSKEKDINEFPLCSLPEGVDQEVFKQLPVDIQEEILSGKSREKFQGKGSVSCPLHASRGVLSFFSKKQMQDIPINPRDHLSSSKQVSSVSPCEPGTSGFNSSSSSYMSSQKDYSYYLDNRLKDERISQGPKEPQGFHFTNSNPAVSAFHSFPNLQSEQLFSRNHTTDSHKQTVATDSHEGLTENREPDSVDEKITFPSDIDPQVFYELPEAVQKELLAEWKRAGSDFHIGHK", "experiment": "qHTS for Inhibitors of Polymerase Iota: Confirmatory Assay for Cherry-picked Compounds (AID 720496)", "conditions": "Pol iota primer extension, TAMRA/BHQ fluorescence", "how_it_was_run": "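Using TAMRA dequenching as read-out, activity of 10 nM human Pol iota on 50 nM (final) primer/reporter/template substrate was tracked from 0 to 10 min, following a 15 min room-temperature compound preincubation.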"}, "[7]": {"molecular_target": "Bifunctional 3'-5' exonuclease/ATP-dependent helicase WRN (Homo sapiens) (UniProt Q14191)", "sequence (Q14191 whole entry, looked up)": "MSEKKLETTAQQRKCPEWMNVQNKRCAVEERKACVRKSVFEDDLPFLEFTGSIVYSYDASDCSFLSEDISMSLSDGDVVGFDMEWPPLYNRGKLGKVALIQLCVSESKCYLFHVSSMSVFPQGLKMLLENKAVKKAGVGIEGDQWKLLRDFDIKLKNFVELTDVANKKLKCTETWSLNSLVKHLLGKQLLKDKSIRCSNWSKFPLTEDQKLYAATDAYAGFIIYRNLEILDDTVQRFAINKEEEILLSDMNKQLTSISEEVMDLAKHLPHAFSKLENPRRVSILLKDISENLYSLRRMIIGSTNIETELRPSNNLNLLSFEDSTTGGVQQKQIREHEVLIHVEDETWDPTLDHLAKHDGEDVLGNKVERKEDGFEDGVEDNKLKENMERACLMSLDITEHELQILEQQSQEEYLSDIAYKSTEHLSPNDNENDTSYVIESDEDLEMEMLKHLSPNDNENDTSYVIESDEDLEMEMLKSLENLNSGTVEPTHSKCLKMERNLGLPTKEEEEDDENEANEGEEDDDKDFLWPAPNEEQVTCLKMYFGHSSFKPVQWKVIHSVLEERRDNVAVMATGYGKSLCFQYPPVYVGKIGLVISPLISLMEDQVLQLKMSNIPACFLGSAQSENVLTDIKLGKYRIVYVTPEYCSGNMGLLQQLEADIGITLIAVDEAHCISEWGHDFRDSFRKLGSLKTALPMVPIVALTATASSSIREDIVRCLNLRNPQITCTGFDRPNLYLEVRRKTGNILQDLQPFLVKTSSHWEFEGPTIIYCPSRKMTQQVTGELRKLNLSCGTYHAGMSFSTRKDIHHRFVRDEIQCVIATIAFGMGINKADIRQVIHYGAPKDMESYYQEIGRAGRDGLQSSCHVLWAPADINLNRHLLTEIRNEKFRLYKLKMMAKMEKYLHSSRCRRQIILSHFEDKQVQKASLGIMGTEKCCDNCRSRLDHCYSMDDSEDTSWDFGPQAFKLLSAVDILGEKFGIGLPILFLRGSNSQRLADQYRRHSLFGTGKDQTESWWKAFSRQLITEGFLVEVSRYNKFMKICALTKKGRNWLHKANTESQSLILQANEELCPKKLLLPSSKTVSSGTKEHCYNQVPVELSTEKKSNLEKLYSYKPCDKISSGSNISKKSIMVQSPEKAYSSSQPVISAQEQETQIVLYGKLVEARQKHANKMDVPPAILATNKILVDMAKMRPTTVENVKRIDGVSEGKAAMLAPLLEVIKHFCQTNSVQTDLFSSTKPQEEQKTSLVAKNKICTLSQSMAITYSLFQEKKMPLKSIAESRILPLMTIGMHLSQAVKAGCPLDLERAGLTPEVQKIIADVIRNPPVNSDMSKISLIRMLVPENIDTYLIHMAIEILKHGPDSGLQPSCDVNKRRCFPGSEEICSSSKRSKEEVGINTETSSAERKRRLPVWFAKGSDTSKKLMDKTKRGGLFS", "experiment": "qHTS for Inhibitors of WRN Helicase: Confirmatory Assay for Cherry-picked Compounds. (AID 720497); note: nearly all actives have a fitted effect of over 65% in size", "how_it_was_run": "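WRN (20 nM) was preincubated 15 min at RT with compound, then started with 100 nM forked duplex oligonucleotide and 2 mM ATP. Unwinding was read kinetically by red fluorescence (ex 525/em 598 nm), normalized to enzyme-free and uninhibited controls.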"}, "[8]": {"molecular_target": "DNA polymerase eta (Homo sapiens) (UniProt Q9Y253)", "sequence (Q9Y253 whole entry, looked up)": "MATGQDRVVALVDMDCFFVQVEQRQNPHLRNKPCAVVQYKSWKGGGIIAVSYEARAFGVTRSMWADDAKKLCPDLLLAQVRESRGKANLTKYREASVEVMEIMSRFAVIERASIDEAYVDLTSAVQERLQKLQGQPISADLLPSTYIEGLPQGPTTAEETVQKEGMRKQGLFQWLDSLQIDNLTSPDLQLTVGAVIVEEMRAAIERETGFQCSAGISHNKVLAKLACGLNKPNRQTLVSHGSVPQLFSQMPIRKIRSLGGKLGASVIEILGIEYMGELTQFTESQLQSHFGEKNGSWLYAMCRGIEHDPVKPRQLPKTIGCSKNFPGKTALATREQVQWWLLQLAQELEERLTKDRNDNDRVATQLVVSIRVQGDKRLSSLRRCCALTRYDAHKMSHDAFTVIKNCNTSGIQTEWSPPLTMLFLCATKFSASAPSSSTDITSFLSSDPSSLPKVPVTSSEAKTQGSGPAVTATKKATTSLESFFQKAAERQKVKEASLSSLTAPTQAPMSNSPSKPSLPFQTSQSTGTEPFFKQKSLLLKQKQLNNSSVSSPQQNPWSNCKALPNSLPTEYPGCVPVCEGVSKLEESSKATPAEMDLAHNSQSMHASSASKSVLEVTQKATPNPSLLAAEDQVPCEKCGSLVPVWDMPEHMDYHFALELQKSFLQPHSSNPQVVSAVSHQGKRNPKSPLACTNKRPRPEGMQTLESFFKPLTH", "experiment": "qHTS for Inhibitors of Polymerase Eta: Confirmatory Assay for Cherry-picked Compounds (AID 720502)", "conditions": "Pol eta primer extension, TAMRA/BHQ fluorescence, 10 min", "how_it_was_run": "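Human Pol eta (10 nM) was preincubated with compounds for 15 min at room temperature before adding 50 nM (final) DNA substrate: primer plus TAMRA reporter strand annealed to a BHQ-2-labeled template. Fluorescence (ex 525/em 598 nm) was read at 0 and 10 min.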"}, "[9]": {"molecular_target": "Cytochrome P450 2C19 (Homo sapiens) (UniProt P33261)", "experiment": "qHTS for inhibitors of CYP2C19 against the NCATS DSHEA and TCM libraries (AID 1919974)", "how_it_was_run": "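Each CYP isoform and its pro-luciferin substrate, at isoform-specific final concentrations, were preincubated 15 min at RT with substances. NADPH regeneration solution (1x) started a 30-45 min reaction, and P450-Glo luminescence was read.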"}, "[10]": {"molecular_target": "Nuclear receptor subfamily 1 group I member 2 (Homo sapiens) (UniProt O75469)", "experiment": "Dual reporter qHTS for antagonist of Pregnane X Receptor (hPXR) against the NCATS DSHEA and TCM libraries: Luminescence Readout (AID 1920060)", "conditions": "hPXR dual reporter cells, luciferase luminescence, antagonist mode; activity change, negative = inhibition: at 40 µM (top of the series) unless noted", "how_it_was_run": "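Rifampicin-stimulated (2 uM final) hPXR-luciferase HepG2 cells were treated for 24 h with DSNP/TCM substances. Viability came from CellTiter-Fluor fluorescence, reporter activity from ONE-Glo luminescence.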"}, "[11]": {"molecular_target": "Rap guanine nucleotide exchange factor 4 (Homo sapiens) (UniProt Q8WZA2)", "sequence (Q8WZA2 whole entry, looked up)": "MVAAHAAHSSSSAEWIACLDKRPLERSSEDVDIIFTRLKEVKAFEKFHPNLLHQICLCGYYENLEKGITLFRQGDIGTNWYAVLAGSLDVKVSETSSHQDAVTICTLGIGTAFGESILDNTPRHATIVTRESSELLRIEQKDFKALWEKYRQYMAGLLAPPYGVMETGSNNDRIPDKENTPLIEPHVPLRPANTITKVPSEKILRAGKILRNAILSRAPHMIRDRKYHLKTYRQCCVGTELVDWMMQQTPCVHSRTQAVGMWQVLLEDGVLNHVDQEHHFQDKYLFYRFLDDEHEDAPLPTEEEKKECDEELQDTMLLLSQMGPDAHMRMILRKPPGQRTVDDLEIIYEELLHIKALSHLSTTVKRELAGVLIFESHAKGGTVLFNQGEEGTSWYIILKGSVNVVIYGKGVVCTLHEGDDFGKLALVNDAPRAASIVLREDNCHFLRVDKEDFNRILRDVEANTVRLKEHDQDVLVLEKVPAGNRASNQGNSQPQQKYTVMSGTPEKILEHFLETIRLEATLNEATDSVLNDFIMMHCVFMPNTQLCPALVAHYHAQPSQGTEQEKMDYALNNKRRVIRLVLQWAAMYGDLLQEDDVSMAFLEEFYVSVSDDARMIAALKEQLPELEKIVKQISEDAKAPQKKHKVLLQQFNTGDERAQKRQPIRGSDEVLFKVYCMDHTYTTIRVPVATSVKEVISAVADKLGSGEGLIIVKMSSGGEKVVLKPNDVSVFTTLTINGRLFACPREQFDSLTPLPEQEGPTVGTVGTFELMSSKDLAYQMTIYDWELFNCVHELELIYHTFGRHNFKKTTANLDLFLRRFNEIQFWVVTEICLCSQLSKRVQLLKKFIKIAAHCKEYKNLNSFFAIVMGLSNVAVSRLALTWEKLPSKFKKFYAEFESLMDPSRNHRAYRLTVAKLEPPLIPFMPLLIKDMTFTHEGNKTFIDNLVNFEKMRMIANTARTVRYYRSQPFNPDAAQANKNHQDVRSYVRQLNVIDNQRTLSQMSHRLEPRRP", "experiment": "Confirmatory qHTS for agonist of cAMP-regulated guanine nucleotide exchange factor 4 (EPAC2) (AID 1645884); note: nearly all actives have a fitted effect of over 65% in size; for activation: % is set by controls: 0 for no effect and ±100 for the full control effect"}, "[12]": {"molecular_target": "Rap guanine nucleotide exchange factor 4 (Homo sapiens) (UniProt Q8WZA2)", "experiment": "Confirmatory qHTS for antagonist of cAMP-regulated guanine nucleotide exchange factor 4 (EPAC2) (AID 1645885); note: nearly all actives have a fitted effect of over 25% in size; for activity change, negative = inhibition: % is set by controls: 0 for no effect and ±100 for the full control effect", "conditions": "activity change, negative = inhibition: at 12.7 µM (top of the series) unless noted"}}, "note": "This list was built around the results that the source calls inconclusive (neither active nor inactive); the mix of calls is not that of the screen. For some assays here: No potency is given beside an inconclusive call; the fits are too rough. Activity calls are given as the source filed them. Calls come from the whole dose curve; as a rule, active = well fitted curve in the direction sought with a large enough effect; inconclusive = small, poorly fitted or top-dose-only effect, or another doubt; inactive = no such curve, though single readings can be large; an effect the other way counts as inactive or inconclusive. Potency is the fitted concentration of half-maximal effect; tags give direction and shape of the fitted curve.", "data": [{"smiles": "CCCCn1nnnc1C(c1cc2ccccc2o1)N1CCCCC1", "note": "(centres undefined)", "values": [{"measurement": "Potency", "setting": "[1]", "value": "inconclusive [activator, full curve, poor fit]"}, {"measurement": "Potency", "setting": "[2]", "value": "inconclusive [activator, partial curve, poor fit]"}]}, {"smiles": "Cc1ccc(OCc2nc3ccccc3n2CC(C)C)cc1", "values": [{"measurement": "Potency", "setting": "[1]", "value": "inconclusive [activator, partial curve, poor fit]"}, {"measurement": "Potency", "setting": "[2]", "value": "inactive"}]}, {"smiles": "CC(C)n1cc(/C=C/c2cc[n+](C)cc2)c2ccccc21", "values": [{"measurement": "Potency", "setting": "[1]", "value": "inconclusive [activator, partial curve, poor fit]"}, {"measurement": "Potency", "setting": "[2]", "value": "active: 56.2 µM"}]}, {"smiles": "c1ccc(Oc2nc(-c3cccnc3)nc3ccccc23)cc1", "values": [{"measurement": "Potency", "setting": "[1]", "value": "inconclusive [activator, partial curve, poor fit]"}, {"measurement": "Potency", "setting": "[2]", "value": "inconclusive [activator, full curve, poor fit]"}]}, {"smiles": "O=C(O)c1cccc(-c2ccc(/C=c3/sc4nc5ccccc5n4c3=O)o2)c1", "values": [{"measurement": "Potency", "setting": "[3]", "value": "active: 6.31 µM"}, {"measurement": "Potency", "setting": "[4]", "value": "inconclusive [inhibitor, full curve]"}, {"measurement": "Potency", "setting": "[5]", "value": "inconclusive [inhibitor, full curve]"}]}, {"smiles": "COc1ccc2noc3c2c1C(=O)c1ccccc1-3", "values": [{"measurement": "Potency", "setting": "[6]", "value": "inconclusive [inhibitor, partial curve]"}]}, {"smiles": "CN(C)c1ccc(/C=C2\\SC(=S)N(Nc3ncc(C(F)(F)F)cc3Cl)C2=O)cc1", "values": [{"measurement": "Potency", "setting": "[6]", "value": "active: 21.2 µM"}]}, {"smiles": "CCOC(=O)C1=C(C)N=c2s/c(=C/c3ccc(OCC(=O)O)c(OC)c3)c(=O)n2C1c1ccc(Cl)cc1", "note": "(centres undefined)", "values": [{"measurement": "Potency", "setting": "[7]", "value": "active: 12.1 µM"}]}, {"smiles": "CC1=Nc2ccccc2/C1=C\\c1nc(-c2ccc(F)cc2)oc1O", "values": [{"measurement": "Potency", "setting": "[5]", "value": "inactive"}]}, {"smiles": "Cc1nc2ccccc2n2c(O)c(CC(=O)O)cc12", "values": [{"measurement": "Potency", "setting": "[8]", "value": "inconclusive [inhibitor, single point]"}]}, {"smiles": "C#CCOc1ccc(/C=C2/C(=O)N(c3cccc(C(=O)O)c3)N=C2C)cc1OC", "values": [{"measurement": "Potency", "setting": "[8]", "value": "inconclusive [inhibitor, single point]"}]}, {"smiles": "CCC(=O)N1CCc2cc(OC)c(OC)cc2C1COc1ccccc1OC", "note": "(centres undefined)", "values": [{"measurement": "activation", "setting": "[2]; at 30.8 µM (top of the series)", "value": "inactive: 4.46%"}]}, {"smiles": "O=C(/C=C/c1ccc(O)c(O)c1)O[C@@H]1C[C@](O)(C(=O)O)C[C@@H](O)[C@H]1O", "values": [{"measurement": "Potency", "setting": "[9]", "value": "inconclusive [inhibitor, single point]"}, {"measurement": "Potency", "setting": "[10]", "value": "inconclusive [inhibitor, full curve]"}]}, {"smiles": "CCN(CC(=O)Nc1ccc(NC(C)=O)cc1)C(=O)C1(c2ccc(Cl)cc2)CCC1", "values": [{"measurement": "Potency", "setting": "[11]", "value": "inactive"}, {"measurement": "Potency", "setting": "[12]", "value": "inconclusive [inhibitor, partial curve]"}]}, {"smiles": "Cc1cc(C)c(S(=O)(=O)N(C)c2ccccc2)c(C)c1", "values": [{"measurement": "Potency", "setting": "[11]", "value": "inconclusive [activator, partial curve, poor fit]"}, {"measurement": "Potency", "setting": "[12]", "value": "active: 23.9 µM"}]}, {"smiles": "COc1cc2nc(N3CCNCC3)nc(N)c2cc1OC", "values": [{"measurement": "Potency", "setting": "[11]", "value": "active: 100 µM"}, {"measurement": "Potency", "setting": "[12]", "value": "active: 67.5 µM"}]}, {"smiles": "CC(C)c1nc2cc(Cl)ccc2n(Cc2ccccc2)c1=O", "values": [{"measurement": "Potency", "setting": "[11]", "value": "inconclusive [activator, single point]"}, {"measurement": "Potency", "setting": "[12]", "value": "inconclusive [inhibitor, partial curve, poor fit]"}]}, {"smiles": "CCC(C)Cn1c(COc2ccc(OC)cc2)nc2ccccc21", "note": "(centres undefined)", "values": [{"measurement": "Potency", "setting": "[11]", "value": "inconclusive [activator, partial curve, poor fit]"}, {"measurement": "Potency", "setting": "[12]", "value": "inactive"}, {"measurement": "Potency", "setting": "[2]", "value": "inactive"}]}, {"smiles": "CCOc1ccccc1N1CCN(C(=O)c2cc3c(s2)CCC3)CC1", "values": [{"measurement": "Potency", "setting": "[11]", "value": "inconclusive [activator, partial curve, poor fit]"}, {"measurement": "Potency", "setting": "[12]", "value": "inactive"}, {"measurement": "Potency", "setting": "[2]", "value": "inconclusive [activator, full curve, poor fit]"}]}, {"smiles": "O=C(/C=C/c1cccc(Cl)c1Cl)OCC(=O)N1CCOCC1", "values": [{"measurement": "Potency", "setting": "[11]", "value": "inconclusive [activator, partial curve, poor fit]"}, {"measurement": "Potency", "setting": "[12]", "value": "inconclusive [inhibitor, partial curve, poor fit]"}]}, {"smiles": "O=C(c1ccccc1Br)N(Cc1ccco1)Cc1ccco1", "values": [{"measurement": "Potency", "setting": "[11]", "value": "inconclusive [activator, partial curve, poor fit]"}]}, {"smiles": "CN(C)c1ccc(/C=C/c2c3c(nc4ccccc24)CCCC3)cc1", "values": [{"measurement": "Potency", "setting": "[11]", "value": "inconclusive [activator, partial curve, poor fit]"}, {"measurement": "Potency", "setting": "[12]", "value": "inactive"}]}, {"smiles": "CSc1ccc(CC2C(=O)Nc3ccccc32)cc1", "note": "(centres undefined)", "values": [{"measurement": "Potency", "setting": "[11]", "value": "inactive"}]}, {"smiles": "CCc1ccc[n+](-c2[nH]c(=O)sc2/C=N/NC([S-])=Nc2ccccc2)c1", "values": [{"measurement": "Potency", "setting": "[11]", "value": "inconclusive [activator, single point]"}, {"measurement": "Potency", "setting": "[12]", "value": "inactive"}, {"measurement": "Potency", "setting": "[2]", "value": "active: 50.1 µM"}]}, {"smiles": "CN(C)c1ccc(/C=C/c2sc3ccccc3[n+]2CCCCBr)cc1", "values": [{"measurement": "Potency", "setting": "[11]", "value": "inconclusive [activator, partial curve, poor fit]"}]}]}
